About 2,200 (0.71%) of roughly 310,000 compounds showed an effect of 50% or more. Effects have a minus sign here. This is one part of the list.
Each compound was assayed against human ether-à-go-go-related gene (hERG) potassium channel (human, UniProt Q12809) (assay: primary screen, population patch clamp on CHO cells stably expressing hERG).
human ether-à-go-go-related gene (hERG) potassium channel, sequence (Q12809 whole entry, looked up): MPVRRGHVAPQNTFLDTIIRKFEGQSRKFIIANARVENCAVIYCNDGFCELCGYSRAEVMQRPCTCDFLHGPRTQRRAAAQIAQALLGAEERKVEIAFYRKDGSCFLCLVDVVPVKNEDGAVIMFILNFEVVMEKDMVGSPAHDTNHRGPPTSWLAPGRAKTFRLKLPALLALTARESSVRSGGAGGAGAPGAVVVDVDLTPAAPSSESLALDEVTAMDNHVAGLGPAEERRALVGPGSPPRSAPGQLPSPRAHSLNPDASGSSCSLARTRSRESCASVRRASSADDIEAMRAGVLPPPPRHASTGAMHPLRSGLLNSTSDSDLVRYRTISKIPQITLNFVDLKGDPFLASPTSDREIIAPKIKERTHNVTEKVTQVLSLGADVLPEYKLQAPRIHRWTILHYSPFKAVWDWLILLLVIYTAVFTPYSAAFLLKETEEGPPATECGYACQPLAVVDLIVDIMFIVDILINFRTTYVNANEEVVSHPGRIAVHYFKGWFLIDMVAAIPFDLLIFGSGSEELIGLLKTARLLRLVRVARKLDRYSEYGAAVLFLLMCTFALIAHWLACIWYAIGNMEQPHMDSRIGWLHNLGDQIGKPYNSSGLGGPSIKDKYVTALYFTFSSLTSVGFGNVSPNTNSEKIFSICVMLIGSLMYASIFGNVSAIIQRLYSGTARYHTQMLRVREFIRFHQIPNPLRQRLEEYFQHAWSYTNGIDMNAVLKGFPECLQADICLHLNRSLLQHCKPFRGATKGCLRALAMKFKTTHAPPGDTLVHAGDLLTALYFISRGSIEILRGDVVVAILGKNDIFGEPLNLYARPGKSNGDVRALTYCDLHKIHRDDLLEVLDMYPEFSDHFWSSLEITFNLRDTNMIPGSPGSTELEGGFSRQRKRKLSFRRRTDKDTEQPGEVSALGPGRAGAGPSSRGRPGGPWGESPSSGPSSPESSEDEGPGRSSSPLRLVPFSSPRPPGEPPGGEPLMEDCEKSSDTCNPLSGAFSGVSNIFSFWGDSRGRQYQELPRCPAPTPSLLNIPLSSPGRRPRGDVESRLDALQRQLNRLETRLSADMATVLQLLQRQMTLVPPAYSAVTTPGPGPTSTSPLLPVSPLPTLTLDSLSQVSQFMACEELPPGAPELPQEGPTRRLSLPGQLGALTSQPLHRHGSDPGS

SMILES | hERG current change (%, negative = inhibition) at 1uM [%]
Cc1cc(N2CC(=O)N(CCc3ccccc3)C(=O)C2)n2ncnc2n1 | -0.495
O=C(Nc1ccon1)c1cccc(S(=O)(=O)N2CCCC2)c1 | 8.64
CN(Cc1cnn(C)c1)Cc1nc(C(c2ccccc2)c2ccccc2)no1 | -0.349
O=C(NCCC(=O)N1CCN(c2ccccc2F)CC1)c1ccco1 | 10.2
COCCNC(=O)[C@@H]1CCCN1S(=O)(=O)c1cccc2cccnc12 | 6.09
CC(C)(C)Nc1c(-c2ccc(O)cc2)nc2ccc(Cl)cn12 | 13.6
COc1ccc(N(C(=O)c2ccco2)C(C(=O)NC2CCCC2)c2ccc(OC)c(OC)c2)cc1 (stereo not shown) | 7.23
COC(=O)C1(CC2CC(c3ccncc3)=NO2)CCN(C(=O)OC(C)(C)C)CC1 (stereo not shown) | 10.2
COc1ccc(OC)c(-n2c(=S)[nH]c3cc(C(=O)N4CCN(c5ccccc5)CC4)ccc3c2=O)c1 | 8.17
COc1ccc(CC(=O)OCC(=O)NC(=O)NC2CCCC2)cc1 | 9.71
O=C(NCCS(=O)(=O)N1CCN(c2ccccc2F)CC1)c1ccc(Br)o1 | -11.4
CC(=O)Oc1ccc(OC(C)=O)c2c1CC(C)=C(C)C2 | 15.3
N#CC1(C#N)C(C(N)=O)C1c1ccccc1 (stereo not shown) | 13.7
COc1cc(NC(=S)N2CCCC(CO)C2)cc(OC)c1 (stereo not shown) | 22.3
CCOC(=O)[C@H]1[C@H]2COc3ccc(Br)cc3[C@@H]2N2C(=O)CN(Cc3ccccc3)C(=O)[C@@]12C | 12.4
O=C(N/N=C/c1cccs1)c1ccc2nc[nH]c2c1 | 3.39
COc1ccc(-c2nc(CSCC(=O)NC3CC3)c(C)o2)cc1OC | 26.7
COc1ccc2[nH]c(=O)c(C(c3nnnn3C3CCCC3)N3CCN(Cc4ccc5c(c4)OCO5)CC3)cc2c1 (stereo not shown) | -2.19
O=C(O)CSc1nnc(-c2ccc(Cl)cc2Cl)n1-c1ccc(Cl)cc1 | 9.5
Cn1cc(/C=N/n2cnc3sc4c(c3c2=O)CCCC4)c2ccccc21 | -0.123
Cc1ccc(C(=O)N[C@H](C(=O)NC2CCCCCCC2)C(C)C)cc1 | 10.8
Cc1ccc2c(CC(=O)Nc3cccc(S(=O)(=O)N4CCOCC4)c3)coc2c1 | 3.93
Cc1ccc(NC(=S)N/N=C/c2cccn2Cc2ccccc2F)cc1 | -1.36

SMILES | hERG current change (%, negative = inhibition) at 1uM [%]
O=C(CCc1ccccc1)Nc1ncn[nH]1 | -3.02
CCOc1ccc(C2Nc3ccccc3C(CC)(CC)O2)cc1 (stereo not shown) | 11.4
Cc1cccc(C)c1NC(=S)NC(C)CCc1ccccc1 (stereo not shown) | 6.09
Cc1oc2cc([N+](=O)[O-])c(O)c([N+](=O)[O-])c2c1C(=O)c1ccc(Cl)cc1 | 7.93
Cn1c(SCC(=O)c2ccccc2F)nnc1C1CC1 | 10.6
COc1ccc(NC(=S)NC(=O)c2cncc(Br)c2)c(OC)c1 | 8.18
Cc1cc(N2CCN(C)CC2)nc2ccc(NC(=S)N3CCN(c4ccc(Cl)cc4)CC3)cc12 | 7.81
CC1CCN(CC(O)CN2c3ccccc3Sc3ccccc32)CC1 (stereo not shown) | 7.3
COc1ccc(NC(=O)COC(=O)c2ccc(OC)c(S(=O)(=O)N3CCCC3)c2)cc1OC | 6.49
Cc1ccc(/C=C2\SC(=S)N(CCC(=O)NNC(=O)c3cccnc3)C2=O)cc1 | 4.57
CCN(Cc1ccccc1)c1ccc(/C=N/NS(=O)(=O)c2ccc(C)c([N+](=O)[O-])c2)cc1 | 11.7
CCN(C(=O)COC(=O)/C=C/c1ccc(S(=O)(=O)N2CCc3ccccc32)cc1)C1CCS(=O)(=O)C1 (stereo not shown) | 1.02
CO/N=C(\C(=O)O)c1csc(NN=C(C)C)n1 | 14.1
CCOC(=O)NC(=O)/C(C#N)=C\NNc1ncc(C(F)(F)F)cc1Cl | 7.79
Cc1ccccc1CNC(=O)CCCC(=O)n1nc(C)c2ccccc21 | 8.9
CCN1CCN(c2ncnc3c2cnn3-c2ccccc2)CC1 | 5.44
O=C(NCc1ccccc1)C1CCCC1 | 16.7
Cc1cnc(NC(=O)c2ccc(-c3nc4ccccc4s3)o2)s1 | 12.7
Cc1cccc(C(=O)NCCCN2CCCC2=O)c1 | 11.1
CC(C)CCC(C)N=Cc1c(O)n(Cc2ccccc2)c(=O)c2ccccc12 (stereo not shown) | 12.8
Cc1cccnc1NC1=NCC(C)S1 (stereo not shown) | 13
CC(=O)Nc1ccc(C23CC4CC(CC(C4)C2)C3)cc1 | 17
COc1ccc(CN2C(=O)NC(=O)/C(=C/c3ccc(OC)c(OC)c3OC)C2=O)cc1 | 3.43

SMILES | hERG current change (%, negative = inhibition) at 1uM [%]
COc1ncnc2sc3c(c12)CCCC3 | -6.51
O=C(N/N=C/c1cn(Cc2cccc(F)c2)c2ccccc12)c1cc(O)cc(O)c1 | 10.6
CC(C)C(=O)Nc1c2c(nn1-c1ccc(F)cc1)CSC2 | 9.44
CC(=O)Nc1ccc(NC(=O)c2nccnc2C(=O)O)cn1 | 7.97
Cc1ccccc1OCCCN1CCCC1 | 7.41
Cc1ccc2cccnc2c1N | 13.8
O=C(NC(Nc1ccc(F)cc1)(C(F)(F)F)C(F)(F)F)c1cccnc1 | 13.6
COCCNC(=O)C1CC(=O)N(C2CCCC2)C1 (stereo not shown) | 9.53
CC1CN/C(=C\C(=O)c2ccccc2)C(=O)N1 (stereo not shown) | 13
CCOc1cc(C(=S)N2CCOCC2)ccc1OS(=O)(=O)c1ccc(OC)cc1 | 7.25
Cc1ccccc1Nc1cc(C(=O)NCC2CCCO2)c2ccccc2n1 (stereo not shown) | -0.407
CN1[C@@H]2CCC[C@H]1CC(NC(=O)c1nn(C)c3ccccc13)C2.Cl (stereo partly shown) | 3.38
COc1ccc(C(=O)Oc2cccc(/C=N/NC(N)=S)c2)cc1 | 8.26
COC(=O)c1cn(NC(=O)c2cc(OC)cc(OC)c2)c(=O)c2ccccc12 | 14.1
COc1ccc(C(=O)NCCc2c[nH]c3ccccc23)cc1 | 13.5
COc1ccc(N(Cc2cc3cc(OC)ccc3[nH]c2=O)S(=O)(=O)c2ccc(NC(C)=O)cc2)cc1 | 9.09
COc1ccccc1-c1noc(CSc2nc(C)cc(=O)[nH]2)n1 | 19.4
CNc1nc(Sc2ccccc2)cc(C(F)(F)F)n1 | 18.9
CCN(CC(=O)NC1CCS(=O)(=O)C1)S(=O)(=O)c1cccc(C(C)=O)c1 (stereo not shown) | 14.6
Cc1onc(-c2ccccc2Cl)c1C(=O)NCCn1c(C)cc2ccccc21 | 12
CCN(CC)C(=S)NC(=O)Cc1ccccc1 | 15.8
CNC(=O)c1cc2c(ccc3ccccc32)o1 | -2.25
CCN(CC)c1ccc(CN(C(=O)c2ccco2)C2CCS(=O)(=O)C2)cc1 (stereo not shown) | 0.108

SMILES | hERG current change (%, negative = inhibition) at 1uM [%]
COCCC(=O)N1CCC(Oc2ccc(C(=O)N3CCCCC3CCO)cc2)CC1 (stereo not shown) | 5.22
CCS(=O)(=O)N1CCC(c2nc3ccccc3[nH]2)CC1 | 14.8
COc1ccccc1NS(=O)(=O)c1cc(NC(=O)c2cc[n+]([O-])cc2)ccc1N1CCCC1 | 8.04
C[C@H](CS)C(=O)N1CCC[C@H]1C(=O)O | -2.52
Cc1ccsc1C(=O)OCc1csc(-c2ccccc2)n1 | -7.82
CS(=O)(=O)Nc1ccccc1C(=O)NCC1(N2CCCCC2)CCCCC1 | 8.57
Cc1ccc(-c2nc3sc4c(N)ncnc4c3c3c2CCCC3)cc1 | 3.8
CCCOc1ccc(C(=O)O)cc1 | 3.26
CC1(CCc2ccccc2)NC(=S)N(c2ccccc2)N1 (stereo not shown) | 12.9
CCN(CC)CCCC1(CN)OCCc2ccccc21.Cl (stereo not shown) | 1.2
CCCOc1ccc(-c2cnc(N)s2)cc1 | -0.0697
COc1ccc(/C(N)=N/OC(=O)Cc2ccc(OC)c(OC)c2)cc1 | 12.3
Cc1ccc(N(CC(=O)NC2CCCCC2)C(=O)CNC(=O)c2ccco2)c(C)c1 | 8.82
COc1ccc2[nH]c3c(=O)n(CCc4ccccc4)cnc3c2c1 | 2.73
CCOC(=O)c1nnc(-c2cccs2)nc1NC(C)C | -13.9
O=C(Nc1cccnc1)c1ccc(F)c(S(=O)(=O)N2CCOCC2)c1 | 9.9
CCOc1ccccc1CNS(=O)(=O)c1ccc2c(c1)C(C)(C)C(=O)N2C | 13.5
CCc1nn(CCCC(=O)N2CCN(c3cccc(C)c3C)CC2)c(=O)c2cc3occc3n12 | 7.23
COc1cccc(Nc2nc(CN3CCOCC3)nc3sc4c(c23)CCCC4)c1 | 6.04
CCSc1nc(-c2ccc(OC)cc2)cc(-c2ccc(OC)cc2)c1C#N | 12.8
COc1cc(CC(=O)OCc2ccccc2F)cc(OC)c1OC | 5.53
CC(/C=N/n1c(COc2ccccc2)n[nH]c1=S)=C\c1ccco1 | 10.5

From PMC4336329 (PLoS ONE, 2015)
